# Positions count from the first letter of the chain named. Some of the results follow.
# T1: RBFOX1 RRM (Homo sapiens, UniProt Q9NWB1 109-208)
# T1 sequence: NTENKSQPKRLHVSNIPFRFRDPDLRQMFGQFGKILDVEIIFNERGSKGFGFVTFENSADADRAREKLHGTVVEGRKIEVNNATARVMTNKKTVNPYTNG
# B1: AUUACGA (DNA:RNA)
# RNA: GGGAGACCGGAAUUCAGAUUGUCCAUUACGAUUAAAUCCCGUCGUAGCCACCA
# DNA 1: CAATCTGAATTCCGGTCTCCC
# DNA 2: TGGTGGCTACGACGGGATT
# B2: CAAGGCG (DNA:RNA)
# RNA: GGGAGACCGGAAUUCAGAUUGUCCCAAGGCGUUAAAUCCCGUCGUAGCCACCA
# DNA 1: CAATCTGAATTCCGGTCTCCC
# DNA 2: TGGTGGCTACGACGGGATT
# B3: AGCGGGC (DNA:RNA)
# RNA: B1 RNA with U26G, U27C, A28G, C29G, A31C
# DNA 1: CAATCTGAATTCCGGTCTCCC
# DNA 2: TGGTGGCTACGACGGGATT
# B4: AUUCGUG (DNA:RNA)
# RNA: B1 RNA with A28C, C29G, G30U, A31G
# DNA 1: CAATCTGAATTCCGGTCTCCC
# DNA 2: TGGTGGCTACGACGGGATT
# B5: AAGACUU (DNA:RNA)
# RNA: B1 RNA with U26A, U27G, G30U, A31U
# DNA 1: CAATCTGAATTCCGGTCTCCC
# DNA 2: TGGTGGCTACGACGGGATT
# B6: GAUGCGC (DNA:RNA)
# RNA: B1 RNA with A25G, U26A, A28G, A31C
# DNA 1: CAATCTGAATTCCGGTCTCCC
# DNA 2: TGGTGGCTACGACGGGATT
# B7: AUGCACA (DNA:RNA)
# RNA: B1 RNA with U27G, A28C, C29A, G30C
# DNA 1: CAATCTGAATTCCGGTCTCCC
# DNA 2: TGGTGGCTACGACGGGATT
# B8: CCAAGGG (DNA:RNA)
# RNA: B2 RNA with A26C, G28A, C30G
# DNA 1: CAATCTGAATTCCGGTCTCCC
# DNA 2: TGGTGGCTACGACGGGATT
# B9: GUGAAGG (DNA:RNA)
# RNA: B1 RNA with A25G, U27G, C29A, A31G
# DNA 1: CAATCTGAATTCCGGTCTCCC
# DNA 2: TGGTGGCTACGACGGGATT
# B10: GGAAUUG (DNA:RNA)
# RNA: B2 RNA with C25G, A26G, G28A, G29U, C30U
# DNA 1: CAATCTGAATTCCGGTCTCCC
# DNA 2: TGGTGGCTACGACGGGATT
# B11: CGCCAUG (DNA:RNA)
# RNA: B2 RNA with A26G, A27C, G28C, G29A, C30U
# DNA 1: CAATCTGAATTCCGGTCTCCC
# DNA 2: TGGTGGCTACGACGGGATT
# B12: UUGACAG (DNA:RNA)
# RNA: B1 RNA with A25U, U27G, G30A, A31G
# DNA 1: CAATCTGAATTCCGGTCTCCC
# DNA 2: TGGTGGCTACGACGGGATT
# B13: GAUUUCG (DNA:RNA)
# RNA: B2 RNA with C25G, A27U, G28U, G29U
# DNA 1: CAATCTGAATTCCGGTCTCCC
# DNA 2: TGGTGGCTACGACGGGATT
# B14: UACGGUC (DNA:RNA)
# RNA: B2 RNA with C25U, A27C, C30U, G31C
# DNA 1: CAATCTGAATTCCGGTCTCCC
# DNA 2: TGGTGGCTACGACGGGATT
# B15: GGUAACU (DNA:RNA)
# RNA: B1 RNA with A25G, U26G, C29A, G30C, A31U
# DNA 1: CAATCTGAATTCCGGTCTCCC
# DNA 2: TGGTGGCTACGACGGGATT
# B16: AGUUUGA (DNA:RNA)
# RNA: B1 RNA with U26G, A28U, C29U
# DNA 1: CAATCTGAATTCCGGTCTCCC
# DNA 2: TGGTGGCTACGACGGGATT
# B17: AUUUAGU (DNA:RNA)
# RNA: B1 RNA with A28U, C29A, A31U
# DNA 1: CAATCTGAATTCCGGTCTCCC
# DNA 2: TGGTGGCTACGACGGGATT
# B18: UUAACCC (DNA:RNA)
# RNA: B1 RNA with A25U, U27A, G30C, A31C
# DNA 1: CAATCTGAATTCCGGTCTCCC
# DNA 2: TGGTGGCTACGACGGGATT
# B19: GCCAACG (DNA:RNA)
# RNA: B2 RNA with C25G, A26C, A27C, G28A, G29A
# DNA 1: CAATCTGAATTCCGGTCTCCC
# DNA 2: TGGTGGCTACGACGGGATT
# B20: GGCUCAC (DNA:RNA)
# RNA: B1 RNA with A25G, U26G, U27C, A28U, G30A, A31C
# DNA 1: CAATCTGAATTCCGGTCTCCC
# DNA 2: TGGTGGCTACGACGGGATT
# B21: UCAUCCU (DNA:RNA)
# RNA: B2 RNA with C25U, A26C, G28U, G29C, G31U
# DNA 1: CAATCTGAATTCCGGTCTCCC
# DNA 2: TGGTGGCTACGACGGGATT
# B22: CCUUAAC (DNA:RNA)
# RNA: B1 RNA with A25C, U26C, A28U, C29A, G30A, A31C
# DNA 1: CAATCTGAATTCCGGTCTCCC
# DNA 2: TGGTGGCTACGACGGGATT
# B23: CGAAGGA (DNA:RNA)
# RNA: B1 RNA with A25C, U26G, U27A, C29G
# DNA 1: CAATCTGAATTCCGGTCTCCC
# DNA 2: TGGTGGCTACGACGGGATT
# B24: AACUGGA (DNA:RNA)
# RNA: B1 RNA with U26A, U27C, A28U, C29G
# DNA 1: CAATCTGAATTCCGGTCTCCC
# DNA 2: TGGTGGCTACGACGGGATT
# B25: AUUGAAG (DNA:RNA)
# RNA: B1 RNA with A28G, C29A, G30A, A31G
# DNA 1: CAATCTGAATTCCGGTCTCCC
# DNA 2: TGGTGGCTACGACGGGATT
# B26: CCGGCAC (DNA:RNA)
# RNA: B2 RNA with A26C, A27G, G29C, C30A, G31C
# DNA 1: CAATCTGAATTCCGGTCTCCC
# DNA 2: TGGTGGCTACGACGGGATT
# B27: CUUGUCA (DNA:RNA)
# RNA: B1 RNA with A25C, A28G, C29U, G30C
# DNA 1: CAATCTGAATTCCGGTCTCCC
# DNA 2: TGGTGGCTACGACGGGATT
# B28: CCGUCUG (DNA:RNA)
# RNA: B2 RNA with A26C, A27G, G28U, G29C, C30U
# DNA 1: CAATCTGAATTCCGGTCTCCC
# DNA 2: TGGTGGCTACGACGGGATT
# B29: UUAUGAG (DNA:RNA)
# RNA: B2 RNA with C25U, A26U, G28U, C30A
# DNA 1: CAATCTGAATTCCGGTCTCCC
# DNA 2: TGGTGGCTACGACGGGATT
# B30: AGCCUAC (DNA:RNA)
# RNA: B1 RNA with U26G, U27C, A28C, C29U, G30A, A31C
# DNA 1: CAATCTGAATTCCGGTCTCCC
# DNA 2: TGGTGGCTACGACGGGATT
# B31: AAACUGA (DNA:RNA)
# RNA: B1 RNA with U26A, U27A, A28C, C29U
# DNA 1: CAATCTGAATTCCGGTCTCCC
# DNA 2: TGGTGGCTACGACGGGATT
# Target: T1, RBFOX1 RRM
# Test: EMSA; HiTS-Eq, 1 nM pool, 10 min; buffer printed only for the single-RNA assays: 10 mM Tris pH 7.5, 150 mM NaCl, 3.4 mM EDTA, 0.001% NP-40, 30 C
# Details: tags: His6 N-terminal (pET28a); label: 5' 32P
# Summary of the method: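 Purified RbFox RRM, wild type or mutant, was incubated for 10 min in 50 µL with 1 nM of a 5′-radiolabelled RNA pool carrying 7 randomized nucleotides, whose flanks were annealed to DNA oligonucleotides, over a series of increasing protein concentrations. Unbound RNA was resolved on 8% native PAGE, cut out, reverse-transcribed, barcoded by PCR and sequenced on an Illumina HiSeq 2500. Relative association constants were derived from changes in read counts for each RNA species versus the control reaction and normalised to the cognate motif.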
row,Binder,binding signal
1,B1,0.0064 KA relative to UGCAUGU
2,B2,0.00837 KA relative to UGCAUGU
3,B3,0.00996 KA relative to UGCAUGU
4,B4,0.0106 KA relative to UGCAUGU
5,B5,0.00324 KA relative to UGCAUGU
6,B6,0.02 KA relative to UGCAUGU
7,B7,0.00803 KA relative to UGCAUGU
8,B8,0.00323 KA relative to UGCAUGU
9,B9,0.011 KA relative to UGCAUGU
10,B10,0.0162 KA relative to UGCAUGU
11,B11,0.011 KA relative to UGCAUGU
12,B12,0.0146 KA relative to UGCAUGU
13,B13,0.0136 KA relative to UGCAUGU
14,B14,0.0104 KA relative to UGCAUGU
15,B15,0.00466 KA relative to UGCAUGU
16,B16,0.0168 KA relative to UGCAUGU

row,Binder,binding signal
1,B17,0.0103 KA relative to UGCAUGU
2,B18,0.000601 KA relative to UGCAUGU
3,B19,0.00816 KA relative to UGCAUGU
4,B20,0.0086 KA relative to UGCAUGU
5,B21,0.000735 KA relative to UGCAUGU
6,B22,0.0026 KA relative to UGCAUGU
7,B23,0.00859 KA relative to UGCAUGU
8,B24,0.00447 KA relative to UGCAUGU
9,B25,0.0126 KA relative to UGCAUGU
10,B26,0.0154 KA relative to UGCAUGU
11,B27,0.00571 KA relative to UGCAUGU
12,B28,0.01 KA relative to UGCAUGU
13,B29,0.015 KA relative to UGCAUGU
14,B30,0.00721 KA relative to UGCAUGU
15,B31,0.00156 KA relative to UGCAUGU
